Measurements: PMC4773433, “The Bub1–Plk1 kinase complex promotes spindle checkpoint signalling through Cdc20 phosphorylation” (Nature Communications, 2016)

Experiments:
His6-Cdc20^ΔN60 WT = target: T1, His6-Cdc20^ΔN60 WT (human, UniProt Q12834); experiment: pull-down; purified His6–Cdc20^ΔN60 WT or S92E immobilised on Ni-NTA beads, incubated with BubR1N and Mad2, 1 h at room temperature, five washes, immunoblotting; details: both partners purified
T1 construct: Cdc20, human, residues 61-499 (Cdc20^ΔN60); also called Cdc20 WT; recombinant Cdc20; source: Sf9, purified (Ni-NTA)

His6-Cdc20^ΔN60 S92E = target: T2, His6-Cdc20^ΔN60 S92E (human, UniProt Q12834, S92E); experiment: as above; details: both partners purified
Sequence of His6-Cdc20^ΔN60 S92E (Q12834 61-499 S92E): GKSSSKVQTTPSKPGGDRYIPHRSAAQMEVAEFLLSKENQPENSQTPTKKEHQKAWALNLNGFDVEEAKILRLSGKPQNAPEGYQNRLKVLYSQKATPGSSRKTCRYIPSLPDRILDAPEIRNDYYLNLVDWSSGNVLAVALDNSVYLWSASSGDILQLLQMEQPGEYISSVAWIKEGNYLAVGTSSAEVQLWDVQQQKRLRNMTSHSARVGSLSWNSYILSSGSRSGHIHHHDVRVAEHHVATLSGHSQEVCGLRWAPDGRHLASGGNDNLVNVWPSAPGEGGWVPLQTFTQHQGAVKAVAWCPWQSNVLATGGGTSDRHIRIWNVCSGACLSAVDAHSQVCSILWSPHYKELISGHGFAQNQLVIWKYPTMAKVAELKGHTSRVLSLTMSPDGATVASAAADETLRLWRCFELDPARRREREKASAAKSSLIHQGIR
T2 construct: Cdc20, human, residues 61-499 (Cdc20^ΔN60), phospho-mimicking S92E; also called Cdc20 S92E; source: Sf9, purified (Ni-NTA)

Sequence of His6-Cdc20^ΔN60 WT (Q12834 61-499, stated change not applied): as the sequence (Q12834 61-499 S92E) above, with E32S counted along it

binding result (His6-Cdc20^ΔN60 WT): binds
binding result (His6-Cdc20^ΔN60 S92E): binds
B1: recombinant human Mad2 (natural protein)
chain: not shown
notes: Mad2, human; the coding region was cloned into pQE30 with a TEV cleavage site; source: bacteria (pQE30), purified (Ni-NTA, TEV, Mono-Q, Superdex-75)
